Measurements: paper PMC4336329 (PLoS ONE, 2015)
The whole screen tested about 310,000 compounds, of which about 14,000 (4.5%) showed an effect of 50% or more. The effect is printed as a negative number. The list shows a part of the results.

What follows are molecules tested against human ether-à-go-go-related gene (hERG) potassium channel (human, UniProt Q12809) (assay: primary screen, population patch clamp on CHO cells stably expressing hERG).
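Also: peak tail current of the secondary pulse compared with the same well before compound.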

Chain of human ether-à-go-go-related gene (hERG) potassium channel (Q12809 whole entry, looked up): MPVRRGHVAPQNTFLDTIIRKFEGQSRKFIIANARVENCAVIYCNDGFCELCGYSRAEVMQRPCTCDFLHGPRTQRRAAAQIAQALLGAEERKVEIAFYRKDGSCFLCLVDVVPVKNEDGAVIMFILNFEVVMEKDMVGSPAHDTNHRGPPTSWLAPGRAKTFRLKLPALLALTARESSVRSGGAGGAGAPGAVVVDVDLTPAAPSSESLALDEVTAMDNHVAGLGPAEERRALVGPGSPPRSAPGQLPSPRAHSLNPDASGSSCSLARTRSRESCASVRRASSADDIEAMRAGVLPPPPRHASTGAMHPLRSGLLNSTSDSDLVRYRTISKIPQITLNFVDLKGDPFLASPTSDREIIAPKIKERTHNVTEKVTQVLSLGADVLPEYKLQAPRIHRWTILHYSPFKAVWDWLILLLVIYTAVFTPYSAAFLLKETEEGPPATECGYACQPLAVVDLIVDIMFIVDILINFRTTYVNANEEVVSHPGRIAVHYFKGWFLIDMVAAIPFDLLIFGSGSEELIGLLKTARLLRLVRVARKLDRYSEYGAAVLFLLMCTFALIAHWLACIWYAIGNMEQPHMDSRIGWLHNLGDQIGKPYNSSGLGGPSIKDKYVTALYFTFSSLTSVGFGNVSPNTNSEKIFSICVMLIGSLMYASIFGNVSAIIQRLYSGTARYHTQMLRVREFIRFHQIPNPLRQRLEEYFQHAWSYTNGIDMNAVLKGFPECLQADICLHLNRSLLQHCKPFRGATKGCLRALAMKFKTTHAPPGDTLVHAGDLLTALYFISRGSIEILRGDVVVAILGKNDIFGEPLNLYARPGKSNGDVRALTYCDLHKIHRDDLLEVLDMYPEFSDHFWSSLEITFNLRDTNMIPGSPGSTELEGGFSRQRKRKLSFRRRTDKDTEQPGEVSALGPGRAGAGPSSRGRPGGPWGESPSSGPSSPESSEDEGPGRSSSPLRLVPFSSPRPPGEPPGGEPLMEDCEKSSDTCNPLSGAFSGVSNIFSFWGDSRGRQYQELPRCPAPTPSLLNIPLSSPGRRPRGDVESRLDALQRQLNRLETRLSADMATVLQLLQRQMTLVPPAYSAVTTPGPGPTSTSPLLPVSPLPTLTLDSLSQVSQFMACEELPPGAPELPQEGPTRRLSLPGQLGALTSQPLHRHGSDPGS

Structure (SMILES)	hERG current change (%, negative = inhibition) at 10uM [%]
Cc1cn([C@H](C(=O)NCCCCCCCCCCC(=O)N2CCN(C(=O)OC(C)(C)C)CC2)[C@@H](C)O)nn1	13.9
CC(=O)C1=C(O)C(=O)N(c2ccc(O)cc2)C1c1ccc([N+](=O)[O-])cc1 (stereo not shown)	8.11
Cc1ccc(CS(=O)(=O)CCC(=O)NCc2ccccn2)cc1	8.71
CCN(CC(=O)NCCc1ccc(S(N)(=O)=O)cc1)Cc1ccccc1	6.99
CC(=O)NC(Cc1ccccc1)C(=O)OCC(=O)c1ccc(F)cc1 (stereo not shown)	1.03
Cc1ccccc1S(=O)(=O)Nc1cccnc1	5.24
COc1ccc(C(=O)Cc2ccccc2)cc1OC	0.147
COC(=O)[C@@]1(Cc2ccc(OC)cc2)[C@H]2c3cc(C(=O)N4CCCC4)n(Cc4c(CO)[nH]cc(C)c4=O)c3C[C@H]2CN1C(=O)c1ccccc1	3.94
CCCCCC(=O)Nc1ccc(N2CCN(S(C)(=O)=O)CC2)cc1	8.59
CC(C)C(NC(=O)C1CCCCC1)C(=O)Nc1ccncc1 (stereo not shown)	9.18
Cc1cc(NS(=O)(=O)c2ccc(NC(=O)CN3C(=O)NC(C)(c4ccccc4)C3=O)cc2)nc(C)n1 (stereo not shown)	2.9
CCOC(=O)c1cc(-c2ccccc2)nc2ccc(C)cc12	23.8
O=c1[nH]cnc2nn(-c3ccccc3)nc12	18.6
CCCCN1C(=O)C(NC(=O)CC(C)C)(C(F)(F)F)C2=C1CC(C)(C)CC2=O (stereo not shown)	14.1
C/C(=N/NC(=O)Cn1nc2ccccc2n1)c1ccc(F)cc1	-7.72
CCOC(=O)C1=C(C)Nc2ccccc2N=C1NC(=O)CCCN1C(=O)c2ccccc2C1=O	1.36
Cc1ccccc1C(=O)c1cccn1CC(=O)NC(C)c1ccc2c(c1)OCCO2 (stereo not shown)	-25
CC(=O)Nc1ccc(S(=O)(=O)NCC(=O)OCC(=O)NCc2ccco2)cc1	-21
COc1ccc(-c2nc(CSCC(=O)NCCCN3CCCC3=O)c(C)o2)cc1OC	14.8
CC(O)CCC(=O)NCCNC(=O)CCC(C)O (stereo not shown)	15.7
Cc1ccoc1C(=O)N1CCN(C(=O)c2occc2C)CC1	13.6
C=CCC(O)c1c(-c2ccccc2)nn(C)c1Cl (stereo not shown)	23.1
CCN(CC)Cc1c(O)ccc2c([N+](=O)[O-])c(C)n(-c3ccc(OC)cc3)c12	-24.9
O=C1C2C3C=CC(C4CC34)C2C(=O)N1/N=C/c1ccc(-c2ccc(Cl)cc2[N+](=O)[O-])o1 (stereo not shown)	-13.5
Cc1ccc(NC(=O)CC2C(=O)OCC3CCCCN32)cc1Cl (stereo not shown)	8.32
CCOC(=O)c1c(NC(=O)c2cccs2)sc(C)c1C	3.46
Cc1ccc(-c2ccc(C(=O)Nc3cccc(F)c3)o2)c2ccccc12	15.8
CCOC(=O)CNC(=O)CSc1nnc(-c2ccccc2OC)n1CC	-1.54

Structure (SMILES)	hERG current change (%, negative = inhibition) at 10uM [%]
O=C(Cc1cccc2ccccc12)NCC(=O)N1CCN(Cc2cccc(C(F)(F)F)c2)CC1	-5.73
O=C(Nc1ccccc1Cl)C1CC(=O)N(Cc2ccco2)C1 (stereo not shown)	-2.66
COc1cccc(N2C(=NC(=O)CCc3ccccc3)SC3CS(=O)(=O)CC32)c1 (stereo not shown)	2.12
CN1CCN(C(=O)CN(C)S(=O)(=O)c2ccc(F)cc2)CC1	16.8
COc1ccc(NC(=O)C(c2ccc(OC)cc2)N(C)C(=O)c2cnccn2)cc1 (stereo not shown)	-19.7
Cc1ccc(S(=O)(=O)Oc2ccc(C)cc2/C=N/N=C2\NC(=O)C(C)S2)cc1 (stereo not shown)	-3.66
O=C(COC(=O)C1CC1)Nc1ncc(C(F)(F)F)cc1Cl	31.8
CC(C)CCn1c(=O)c2ccccc2c2ccccc2c1=O	-16.8
CCOC(=O)c1c2ccc(OCC(=O)NN)cc2n2ccccc12	29
COC(=O)C(NS(=O)(=O)c1ccc(NC(C)=O)cc1)C(C)C (stereo not shown)	-0.58
COCCNC(=O)CNC(=S)N(CCCN1CCOCC1)Cc1cccs1	14.1
COC(=O)c1ccc(CNC(=O)Cn2cnnn2)cc1	17.3
CCn1c(=O)cc(O)c2ccccc21	7.52
CCc1ccc(Nc2nnc(SCn3nnc4ccccc4c3=O)s2)cc1	-14.5
Cc1ccc(NC(=O)CSc2nnc(CCC(=O)O)c(=O)[nH]2)cc1	13.1
O=C(COC(=O)CCCN1C(=O)c2ccccc2C1=O)Nc1ncc(Cl)cc1Cl	-9.74
O=S(=O)(Nc1ccc(-c2nc3cccnc3s2)cc1)c1ccccc1F	18.2
CC(C)NC(=O)c1ccc(NC(=O)CC2SC(N3CCCCC3)=NC2=O)cc1 (stereo not shown)	9.12
O=C(CCCl)N(Cc1nc2ccccc2c(=O)[nH]1)Cc1cccs1	-0.438
CC(C)C[C@H]1CN=C(N(C)C)N1CC1CCCCCC1	-19.7
CCCOc1cccc(C2C(C(=O)c3cccs3)=C(O)C(=O)N2CCN2CCOCC2)c1 (stereo not shown)	29.3
Cc1cc(/C=C2\SC(=S)NC2=O)cc(C)c1O	10.8
O=C(COC(=O)c1ccncc1)Nc1cc(S(=O)(=O)N2CCOCC2)ccc1Cl	-20.6
COc1ccc(N(C(=O)c2ccncc2)S(=O)(=O)c2ccc(Cl)cc2)cc1	-26.4
N#Cc1c(-c2cccnc2)cc(-c2ccccc2)nc1N	-13.6
CCOC(=O)C1[C@H]2C(=O)N(C(C)c3ccc(OC)cc3)C[C@]23C=C[C@H]1O3 (stereo partly shown)	-20
O=C(O)c1cc(NC(=S)NC(=O)C(c2ccccc2)c2ccccc2)ccc1Cl	3.77
